Some of the results follow. Cleavage of a single-stranded DNA pool by Rep nickase domains was read by sequencing for 1 h at 37 °C with 3 µM enzyme; only the middle of the 90-letter strands is printed. Values are log2 of uncut reads against the no-enzyme pool; uncut sequences lie near 0, cut ones below; no hit call is given. Reads are scaled to the total; where an enzyme cuts many sequences, the uncut ones exceed 0.
Tested on: T1, Rep nickase domain of tomato golden mosaic virus
T1 sequence (residues 1-124 of Rep, tag left off): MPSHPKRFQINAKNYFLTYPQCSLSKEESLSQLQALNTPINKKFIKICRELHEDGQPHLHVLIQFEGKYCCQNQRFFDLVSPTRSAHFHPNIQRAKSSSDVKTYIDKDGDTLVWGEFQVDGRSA
Experiment: uncleaved DNA left, log2 of reads against the no-enzyme library (log2 ratio); higher = less cleavage (more negative = more Rep cleavage of the k-mer); sequences stand for … in CTCGTCCG…ACCGGAGA
Procedure: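 A pool of 90-nt single-stranded DNAs with seven random bases just before the constant AC of the nick site (name = the seven bases) was cut by 3 µM recombinant His6-SUMO-tagged Rep nickase domain (300 nM DNA, 50 mM HEPES pH 8.0, 50 mM NaCl, 1 mM MnCl2, 1 h, 37 °C, three replicates). Uncut DNA was amplified and sequenced.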

Sequence	uncleaved DNA left (log2)
AGTCGTT	0.0314
AGTAAAC	0.0428
GCGAGAT	-0.0229
TGATAGC	-0.101
AAATTCC	-0.245
AATGCTT	-0.0224
GCAAAAT	0.143
TGAAGGC	0.0692
GCAGCTC	0.00261
CTTCACA	-0.109
CTGCGAG	-0.133
AGCGACA	0.111
GCCCTCA	-0.00814
GAGGAAC	-0.137
ACTGCAG	-0.104
CTCCGTC	-0.00211
AAGCCCG	0.0346
GGCTTGT	0.163
GAAGCCT	-0.163
GGTACGG	0.0916

Sequence	uncleaved DNA left (log2)
TAGAGTG	0.199
TACCGAG	0.0962
TGACCAC	0.0514
GCAACTC	-0.0434
GAGAGCT	0.119
TTTCGCT	-0.092
CACACCT	-0.17
GCGCAGA	0.109
TCTCCCT	-0.0254
GTGTCTA	0.129
CCAGAGC	0.0139
GGCATGA	0.0436
GAGATTC	0.0623
GGCAAAA	0.166
ACGCCTC	-0.0444
ACAGCGA	0.0354
GTTCAGC	0.0557
CAAAGAA	0.0558
TACGGGC	-0.0874
GTTCGCG	-0.169
